Assay results from article PMC4336329 (PLoS ONE, 2015).
Out of some 310,000 compounds screened, about 14,000 (4.5%) showed an effect of 50% or more. Effects have a minus sign here. The list shows a part of the results.

The compounds below were run against human ether-à-go-go-related gene (hERG) potassium channel (human, UniProt Q12809) (assay: primary screen, population patch clamp on CHO cells stably expressing hERG).
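Further: peak tail current of the secondary pulse compared with the same well before compound.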

Chain of human ether-à-go-go-related gene (hERG) potassium channel (Q12809 whole entry, looked up): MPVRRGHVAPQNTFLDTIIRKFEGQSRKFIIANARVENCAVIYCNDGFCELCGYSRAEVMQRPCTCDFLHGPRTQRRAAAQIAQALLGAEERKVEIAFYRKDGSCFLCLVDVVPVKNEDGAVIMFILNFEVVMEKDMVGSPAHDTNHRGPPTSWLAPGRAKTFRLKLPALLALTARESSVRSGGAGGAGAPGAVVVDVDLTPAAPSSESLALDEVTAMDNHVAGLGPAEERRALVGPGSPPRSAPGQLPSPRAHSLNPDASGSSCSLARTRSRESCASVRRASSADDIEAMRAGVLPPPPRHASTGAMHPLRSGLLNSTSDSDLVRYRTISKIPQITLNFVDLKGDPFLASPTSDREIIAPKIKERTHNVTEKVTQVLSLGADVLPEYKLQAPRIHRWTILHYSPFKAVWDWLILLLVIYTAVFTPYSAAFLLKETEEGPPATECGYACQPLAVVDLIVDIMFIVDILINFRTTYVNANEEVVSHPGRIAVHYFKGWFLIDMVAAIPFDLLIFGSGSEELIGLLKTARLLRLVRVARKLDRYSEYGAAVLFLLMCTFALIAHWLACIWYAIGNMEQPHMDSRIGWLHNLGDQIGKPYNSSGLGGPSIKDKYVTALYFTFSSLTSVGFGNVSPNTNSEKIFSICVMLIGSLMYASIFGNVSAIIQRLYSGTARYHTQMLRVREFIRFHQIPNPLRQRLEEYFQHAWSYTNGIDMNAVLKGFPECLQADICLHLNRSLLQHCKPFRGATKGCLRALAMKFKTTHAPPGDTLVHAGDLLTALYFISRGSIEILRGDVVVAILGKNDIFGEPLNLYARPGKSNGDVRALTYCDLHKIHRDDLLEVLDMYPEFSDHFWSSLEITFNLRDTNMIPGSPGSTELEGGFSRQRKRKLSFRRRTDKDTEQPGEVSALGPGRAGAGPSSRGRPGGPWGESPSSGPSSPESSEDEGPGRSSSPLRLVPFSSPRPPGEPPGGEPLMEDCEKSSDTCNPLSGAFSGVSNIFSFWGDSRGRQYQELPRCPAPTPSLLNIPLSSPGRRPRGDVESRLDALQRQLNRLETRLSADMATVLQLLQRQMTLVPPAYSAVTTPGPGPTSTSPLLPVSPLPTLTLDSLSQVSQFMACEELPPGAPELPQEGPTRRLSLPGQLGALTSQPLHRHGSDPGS

SMILES | hERG current change (%, negative = inhibition) at 10uM
O=C(NCC1CCCO1)C1CC(c2ccc(Cl)c(Cl)c2)=NO1 (stereo not shown) | -20.1%
Cc1cc(C(=O)OCC(=O)N2CCCC2)c2ccccc2n1 | -9.04%
CC(C)(C)NC(=O)C1CC(=O)OC12CCOC(C)(C)C2 (stereo not shown) | 44.4%
COc1ccc(NC(=O)CCN2C(=O)[C@@H]3[C@H](C2=O)[C@H]2C=C[C@@H]3C2)cc1 | 19%
CC1CCN(C(=O)CSc2nc(C3CC3)nc3ccccc23)CC1 | 5.49%
O=C(N/N=C(\CC(=O)c1cccs1)C(F)(F)F)c1ccncc1 | 2.66%
COc1cccc(CN2CCNC(=O)C2CC(=O)NC2CCCC2)c1OC (stereo not shown) | 6.35%
CCOC(=O)C1CCCN(c2c(NCCCN(CC)c3ccccc3)c(=O)c2=O)C1 (stereo not shown) | -47.8%
CCN1CCN(c2ccc(S(=O)(=O)N3CCOCC3)cc2NC(=O)CC(C)C)CC1 | 0.99%
O=C(CSc1n[nH]c(-c2ccncc2)n1)c1ccccc1 | 11.7%
COCCCn1c(=O)c2ccccc2n(CC(=O)NC2CCCCC2)c1=O | 20.1%
Cc1nn(CC(=O)O)c(C)c1[N+](=O)[O-] | 0.246%
O=c1[nH]c(=S)n(-c2cccc(Cl)c2)c(O)c1C=NCCN1CCNCC1 | 8.55%
CCOc1cc(NC(=O)c2cccs2)c(OCC)cc1NC(=O)CCC(=O)NCc1ccccn1 | -8.77%
CNC(=O)CSc1nnc(-c2ccco2)n1-c1cccc(C)c1C | 15%
Oc1cccc(Nc2ncnc3ccccc23)c1 | 3.18%
CCNC(=O)COc1ccc(/C=C2\COc3ccccc3C2=O)cc1OC | -71.8%
CCCn1c(=O)[nH]c(=O)c2c1nc(-c1ccc3c(c1)OCCO3)n2CCN1CCOCC1 | -2.05%
CCOC(=O)CC1CCCCN1C(=O)c1ccc2oc(CCc3ccccc3)nc2c1 (stereo not shown) | -18%
CC(C)(C)OC(=O)N1Cc2ccccc2C[C@H]1C(=O)NCC(=O)NC1CCCCC1 | 4.83%
Cc1ccc(NC(=O)c2cc(N3C(=O)C=CC3=O)ccc2Cl)cc1C | 1.53%
N#CC1=C2Sc3ccccc3N2CCCC1=O | -1.25%

SMILES | hERG current change (%, negative = inhibition) at 10uM
CCOC(=O)Nc1ccc(OCc2nnc3c4ccccc4c(C)nn23)cc1 | -1.67%
COc1ccccc1CNC(=O)CCN=C1NS(=O)(=O)c2ccccc21 | -18.3%
COc1ccc(OCC(=O)Nc2cccc3ncccc23)cc1 | -2.78%
O=C(COC(=O)/C=C/c1ccc(Cl)c(Cl)c1)NC1CCS(=O)(=O)C1 (stereo not shown) | -6.54%
COc1cc(OC)cc(C(=O)NCc2ccc(-n3cccc3)cc2)c1 | 9.48%
COc1ccc(NC2CCCN(C(=O)CCN3CCCC3=O)C2)cc1 (stereo not shown) | 12%
CC(Nc1nc(-c2cccc(Br)c2)cs1)c1nc2cc(Cl)c(N3CCCCC3)cc2n1CCOCCO (stereo not shown) | -19.1%
Cc1cnc(NC(=O)/C=C/c2ccc(Br)o2)s1 | -5.35%
COc1cc2c(cc1OC)C(C(=O)O)C(c1ccc(C)o1)N(C)C2=O (stereo not shown) | 8.99%
COC(=O)c1cccc(-n2c(C)cc(C=O)c2C)c1C | -1.4%
Cc1ccccc1CC(=O)OCC(=O)Nc1ccc(C)c(S(=O)(=O)N2CCCCC2)c1 | 0.386%
Cc1cccc(NC(=O)CNC(=O)CNC(=O)Cc2ccccc2)c1 | -5.39%
O=C(C1CCC1)N1CCc2cc(S(=O)(=O)Nc3ccc4c(c3)OCO4)ccc21 | -1.44%
O=S(=O)(NC1CCCCC1)c1ccc(Br)s1 | -4.25%
COc1ccc(NC(C)C(=O)Nc2cc(C(F)(F)F)ccc2N2CCOCC2)c(OC)c1 (stereo not shown) | -19.2%
COc1ccc(-c2oc3ccc(N4CCOCC4)cc3c2C#CC2(O)CCCCC2)cc1 | 17.3%
O=C(CCc1nnc(CCC2CCCCC2)o1)NCCc1cccnc1 | -0.392%
CCOC(=O)c1cnn(-c2nc(SC)nc3sc4c(c23)CCC4)c1N | -9.42%
COc1ccc(OC)c(NS(=O)(=O)c2ccc(Cl)nc2)c1 | 22.2%
Cc1ccc(/C(C#N)=C\c2cn(C)c3ccccc23)cc1 | -7.63%
COc1ccnc(Oc2ccc(F)cc2)c1C(=O)N/C=N/OCc1ccc(F)cc1Cl | 9.87%
O=[N+]([O-])c1ccc(N2CCN(C(=S)Nc3ccccc3)CC2)cc1 | -4.16%

SMILES | hERG current change (%, negative = inhibition) at 10uM
CCCC(=O)Nc1nc2c(c(=O)[nH]1)CCCC2 | 10.2%
Cc1ccccc1Cn1cc(NS(=O)(=O)c2cn(C)nc2C)cn1 | 6.08%
COc1ccc(NS(=O)(=O)c2ccc(NC(=O)c3ccc(N(C)S(C)(=O)=O)cc3)cc2)c(OC)c1 | 19.6%
CS(=O)(=O)N(CC(=O)NCCSCc1c(F)cccc1Cl)c1ccc2c(c1)OCO2 | 5.26%
Cc1ccc(NC(=O)c2cc(=O)c3ccccc3o2)cc1S(=O)(=O)N1CCOCC1 | 0.642%
O=C(OCC(=O)N1c2ccccc2Sc2ccccc21)c1ccc[n+]([O-])c1 | -6.9%
CCc1ccc(NC(=O)C(C)Nc2ccc(S(=O)(=O)NC(C)=O)cc2)cc1 (stereo not shown) | 5.3%
N#CC(C#N)=C(N)Nc1cccc(Cl)c1 | 6.5%
N#C/C(=C(/O)CCl)c1nc2ccccc2[nH]1 | 1.37%
O=[N+]([O-])c1ccc(N2CCN(c3ccccc3O)CC2)cc1 | -0.173%
O=C(CCCc1ccccc1)Nc1cccc([N+](=O)[O-])c1 | 3.15%
Nc1nc(SCC(=O)NCC2CCCO2)[nH]c(=O)c1NC(=O)c1ccc(F)c(F)c1 (stereo not shown) | 22.1%
Cn1ncc2c(Nc3cccc(Cl)c3)nc(Nc3cccc(Cl)c3)nc21 | 16.5%
COc1ccc2cc3[n+](cc2c1OC)CCc1cc2c(cc1-3)OCO2.[Cl-] | -14.5%
CC(C)Oc1ccc(S(=O)(=O)N2CCOCC2)cc1NC(=O)c1cc([N+](=O)[O-])ccc1N1CCOCC1 | -45.7%
CCOc1ccccc1NC(=O)COC(=O)CC(C)(C)CC1=NS(=O)(=O)c2ccccc2N1 | -60.5%
CCC(C(=O)N1CCN(C(=O)c2ccco2)CC1)c1ccccc1 (stereo not shown) | 3.39%
CCC1CCCCN1CCCNC(=O)CN1C(=O)COc2ccccc21 (stereo not shown) | 8.04%
Cc1ccc(NC(=O)COc2ncnc3c(Cl)cc(Cl)cc23)cc1[N+](=O)[O-] | -7.52%
O=C(CN1C(=O)c2ccccc2S1(=O)=O)N1CCN(c2ccc(F)cc2)CC1 | -7.37%
COc1ccc(-n2c(SCC(=O)N3CCCCC3)nnc2-c2cccnc2)cc1 | 1.02%
CCOC(=O)c1cnc2c(-c3cccc(Br)c3)cnn2c1C | -0.606%

SMILES | hERG current change (%, negative = inhibition) at 10uM
COc1ccc([C@H]2[C@H](C(=O)C(C)(C)C)N3N=Cc4ccccc4C3C23C(=O)OC(C)(C)OC3=O)cc1 (stereo partly shown) | 1.29%
CN1CCN(C(=O)C2=C[C@H](c3ccc(C(F)(F)F)cc3)C[C@H](OCc3ccc(CO)cc3)O2)CC1 | -40.4%
CC(=O)Nc1ccc(S(=O)(=O)Nc2cc([N+](=O)[O-])ccc2C)cc1 | 12.1%
O=c1c(-c2ccccc2)coc2c(CN3CCCC3)c(O)ccc12 | -7.29%
Cc1ccc(C)c(CN2CCC(CNC(=O)Nc3ccc(C)c(F)c3)CC2)c1 | -27.5%
Cc1cc(=O)n2nc(N3CCCC3C(=O)Nc3cccc(Cl)c3C)sc2n1 (stereo not shown) | -6.56%
COc1ccc(CCn2nnnc2C(C(C)C)N2CCC(C(N)=O)CC2)cc1OC (stereo not shown) | -3.69%
CCC(=O)c1ccc(OCC(=O)OCC(=O)c2cc(C)n(C3CC3)c2C)cc1 | 3.73%
O=C(NC1CCCCC1)C1COc2ccccc2O1 (stereo not shown) | -7.19%
COCCCNC(=O)COC(=O)c1ccc(-c2nc3ccccc3s2)s1 | -5.58%
COc1ccccc1-n1cc(CN2CCN(CC=C(C)C)C(CCO)C2)cn1 (stereo not shown) | -13.7%
COc1ccc(CC(=O)N/N=C(\C)CC(=O)Nc2ccc(N(C)C)cc2)cc1OC | 21.9%
COc1ccc2oc(C(=O)OCC(=O)N(CCC#N)c3ccccc3)c(C)c2c1 | 7.38%
O=C(CCNS(=O)(=O)c1ccc(Br)cc1)NCCc1ccc(Cl)cc1 | -4.6%
O=C/C(=C\Nc1ccc(Br)cc1)c1nc2ccccc2o1 | 20.6%
Cc1cccc(-n2c(O)c(/C=C3/C(c4ccccc4)=Nc4ccccc43)c(=O)[nH]c2=O)c1 | 1.39%
Cc1ccc(C(=O)N2CCN(Cc3ccccc3)CC2)o1 | -14.6%
CCOC(=O)CSc1nnc(-c2ccco2)n1-c1ccc(C)cc1 | -61.9%
COc1ccc(C2N(C(=O)N3CCOCC3)CCN2S(=O)(=O)c2ccc(C)cc2)cc1 (stereo not shown) | 10.8%
